US20200362031A1 (BIO TECHNE, published 2020)

Biological target: T1, Recombinant human VSIG3 Fc Chimera (human)
T1 construct: also called rhVSIG3; rhVSIG-3
T1 chain: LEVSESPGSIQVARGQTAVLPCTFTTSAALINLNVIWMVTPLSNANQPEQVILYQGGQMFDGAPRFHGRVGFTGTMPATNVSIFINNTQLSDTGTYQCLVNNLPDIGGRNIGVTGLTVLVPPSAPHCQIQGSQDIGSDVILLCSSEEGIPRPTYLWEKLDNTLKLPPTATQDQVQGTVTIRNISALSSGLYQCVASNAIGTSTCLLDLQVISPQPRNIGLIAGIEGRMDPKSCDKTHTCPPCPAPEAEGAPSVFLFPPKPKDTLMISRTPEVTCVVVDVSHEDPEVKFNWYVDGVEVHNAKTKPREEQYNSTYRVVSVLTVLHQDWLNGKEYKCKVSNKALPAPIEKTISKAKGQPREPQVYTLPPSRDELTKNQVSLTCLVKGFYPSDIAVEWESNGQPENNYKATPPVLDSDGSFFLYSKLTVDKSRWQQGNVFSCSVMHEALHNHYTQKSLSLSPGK
Assay: AVEXIS: VSIG3-Fc bait on protein A plate, VISTA-COMP-AlkPhos prey, alkaline phosphatase read at 650 nm
Protocol: The avidity-based extracellular interaction screen (AVEXIS) was modified to screen for antibodies against VSIG3 that block the interaction between recombinant human VSIG3 (rhVSIG3) and VISTA. […] After capturing VSIG3-Fc bait on protein A coated plates, wells were incubated individually with a monoclonal antibody against VSIG3. Conditioned media containing the oligomeric prey protein fused to the COMP helical oligomer and alkaline phosphatase was then added, incubated, and washed, and the interaction was quantitatively measured by detection of alkaline phosphatase activity using the BLUEPHOS reagent (KPL/Sera Care, Milford, Mass.).
Rat and mouse monoclonal antibodies recognizing human VSIG3 were generated and tested for their ability to block a VSIG3-VISTA interaction. AVEXIS assay screening for antibody blockade of the VSIG3-VISTA interaction was conducted as described above. Briefly, the bait protein, VSIG3-Fc, was captured on Protein A coated plates and blocked without or with antibodies at 10 μg/mL. […] The prey protein, multimeric VISTA with alkaline phosphatase, was incubated in the presence of anti-VSIG3 antibodies. After washing, the interaction between VSIG3 and VISTA was measured using alkaline phosphatase substrate and quantified by measuring the absorbance at 650 nm.

binding result: binds
B1: VISTA([…])-COMP-AlkPhos-Flag/His (other)
chain: [about 150 residues not written out]GSENLYFQGNSGGGSGGGTGGGDLAPQMLRELQETNAALQDVRELLRHRVKEITFLKNTVMECDACGLDRNLPPLAPLGPIIPVEEENPDFWNREAAEALGAAKKLQPAQTAAKNLIIFLGDGMGVSTVTAARILKGQKKDKLGPEIPLAMDRFPYVALSKTYNVDKHVPDSGATATAYLCGVKGNFQTIGLSAAARFNQCNTTRGNEVISVMNRAKKAGKSVGVVTTTRVQHASPAGTYAHTVNRNWYSDADVPASARQEGCQDIATQLISNMDIDVILGGGRKYMFRMGTPDPEYPDDYSQGGTRLDGKNLVQEWLAKRQGARYVWNRTELMQASLDPSVTHLMGLFEPGDMKYEIHRDSTLDPSLMEMTEAALRLLSRNPRGFFLFVEGGRIDHGHHESRAYRALTETIMFDDAIERAGQLTSEEDTLSLVTADHSHVFSFGGYPLRGSSIFGLAPGKARDRKAYTVLLYGNGPGYVLKDGARPDVTESESGSPEYRQQSAVPLDEETHAGEDVAVFARGPQAHLVHGVQEQTFIAHVMAFAACLEPYTACDLAPPAGTTDDYKDDDDKHHHHHH
notes: AVEXIS prey, used as conditioned medium; The entry starts at residue 1 (leader included); no cleavage site is stated; also called multimeric VISTA with alkaline phosphatase; VISTA ectodomain (ECD) coupled to COMP helix and alkaline phosphatase
